This passage reports binding results from publication PMC4949998.

Results are given in words; binding and its absence hold for the method and conditions named. For some of these results: Binding seen in cells or lysates may run through a third protein. Some results given as binding are weak or reduced against the parent protein; the word gives no strength. For some of these results: Tags and fused reporters may be left off the sequences shown.

Assay [1] addresses T1, MRE11-nYFP (Arabidopsis thaliana) (UniProt Q9XGM2).
T1 sequence: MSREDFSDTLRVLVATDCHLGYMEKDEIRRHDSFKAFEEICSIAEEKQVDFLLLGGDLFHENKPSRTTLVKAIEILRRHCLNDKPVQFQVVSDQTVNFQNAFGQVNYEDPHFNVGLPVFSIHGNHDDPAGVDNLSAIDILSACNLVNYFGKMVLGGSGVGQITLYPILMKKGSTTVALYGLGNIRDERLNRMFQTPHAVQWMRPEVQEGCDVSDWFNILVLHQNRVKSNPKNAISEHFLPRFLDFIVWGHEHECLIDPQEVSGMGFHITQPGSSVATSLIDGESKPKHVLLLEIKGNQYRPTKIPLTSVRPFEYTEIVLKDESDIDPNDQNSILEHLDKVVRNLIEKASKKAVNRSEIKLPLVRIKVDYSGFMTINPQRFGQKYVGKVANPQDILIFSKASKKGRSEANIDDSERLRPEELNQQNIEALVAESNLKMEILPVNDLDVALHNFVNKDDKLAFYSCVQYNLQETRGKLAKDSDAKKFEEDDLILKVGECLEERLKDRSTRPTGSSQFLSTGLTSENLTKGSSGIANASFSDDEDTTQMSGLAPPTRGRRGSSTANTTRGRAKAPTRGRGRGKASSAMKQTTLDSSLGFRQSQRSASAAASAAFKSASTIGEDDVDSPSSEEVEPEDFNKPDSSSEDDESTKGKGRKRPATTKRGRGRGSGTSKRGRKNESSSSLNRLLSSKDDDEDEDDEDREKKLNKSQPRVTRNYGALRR
Nature of the assay: split reporter; BiFC with halves of Venus YFP, transient expression in Arabidopsis leaf protoplasts, confocal fluorescence microscopy.

Assay [2] has as its target T2, Arabidopsis MRE11, full-length, GAL4 DNA-binding domain fusion (two-hybrid bait) (Arabidopsis thaliana) (UniProt Q9XGM2).
T2 sequence: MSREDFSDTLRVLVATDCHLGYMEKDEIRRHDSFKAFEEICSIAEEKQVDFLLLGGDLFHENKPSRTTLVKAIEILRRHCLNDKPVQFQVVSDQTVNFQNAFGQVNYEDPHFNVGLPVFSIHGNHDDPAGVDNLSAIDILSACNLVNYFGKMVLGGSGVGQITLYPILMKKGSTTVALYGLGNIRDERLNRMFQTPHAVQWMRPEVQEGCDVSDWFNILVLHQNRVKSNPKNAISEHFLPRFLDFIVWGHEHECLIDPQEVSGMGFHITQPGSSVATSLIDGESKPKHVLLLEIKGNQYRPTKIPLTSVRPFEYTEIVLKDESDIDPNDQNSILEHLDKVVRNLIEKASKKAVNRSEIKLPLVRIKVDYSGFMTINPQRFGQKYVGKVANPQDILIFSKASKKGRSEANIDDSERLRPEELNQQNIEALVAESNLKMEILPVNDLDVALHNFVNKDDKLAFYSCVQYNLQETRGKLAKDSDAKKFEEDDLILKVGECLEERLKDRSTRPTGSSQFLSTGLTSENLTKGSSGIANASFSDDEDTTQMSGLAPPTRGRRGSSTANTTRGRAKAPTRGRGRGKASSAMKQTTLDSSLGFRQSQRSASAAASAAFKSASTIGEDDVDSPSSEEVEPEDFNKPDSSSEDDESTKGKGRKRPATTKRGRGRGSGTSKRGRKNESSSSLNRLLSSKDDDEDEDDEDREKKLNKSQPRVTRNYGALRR
Description: two-hybrid; direct test after plasmid isolation and re-transformation into the yeast reporter strain AH109; MRE11 full length and deletion constructs against the TAF1 C-terminal region.

Assay [3] concerns the target T3, MRE11 deletion construct without the C-terminal domain (MRE11 up to residue 529) (Arabidopsis thaliana) (UniProt Q9XGM2).
T3 sequence: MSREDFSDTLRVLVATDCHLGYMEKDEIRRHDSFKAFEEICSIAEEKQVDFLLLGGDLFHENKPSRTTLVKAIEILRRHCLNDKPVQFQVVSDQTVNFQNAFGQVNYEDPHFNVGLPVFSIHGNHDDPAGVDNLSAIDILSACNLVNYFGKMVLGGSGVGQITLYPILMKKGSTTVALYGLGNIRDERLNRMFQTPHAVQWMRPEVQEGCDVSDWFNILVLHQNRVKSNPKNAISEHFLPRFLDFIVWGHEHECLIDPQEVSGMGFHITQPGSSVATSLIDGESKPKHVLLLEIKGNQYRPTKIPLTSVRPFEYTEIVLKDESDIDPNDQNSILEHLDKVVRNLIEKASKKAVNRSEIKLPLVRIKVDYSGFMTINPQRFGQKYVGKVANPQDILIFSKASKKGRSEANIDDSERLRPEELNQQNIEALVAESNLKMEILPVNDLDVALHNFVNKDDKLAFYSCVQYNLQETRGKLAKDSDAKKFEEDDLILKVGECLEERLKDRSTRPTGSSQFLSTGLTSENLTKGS
The description is as above.

In assay [4] the target is T2, Arabidopsis MRE11, full-length, GAL4 DNA-binding domain fusion (two-hybrid bait) (Arabidopsis thaliana). Description: two-hybrid; library screen: full-length MRE11 bait (GAL4 DNA-binding domain) against an Arabidopsis activation domain library; selection without tryptophan, leucine and histidine with 2.5 mM 3-amino-1,2,4-triazole, re-plated on media also lacking adenine.

B1: TAF1(1755–1919)-cYFP (domain or fragment, UniProt Q8LRK9 1755-1919)
chain: LEDYPPRKNDRRLSERGRNVRSRYVSDFERDGAEYAPQPKRRKKGEVGLANILERIVDTLRLKEEVSRLFLKPVSKKEAPDYLDIVENPMDLSTIRDKVRKIEYRNREQFRHDVWQIKYNAHLYNDGRNPGIPPLADQLLEICDYLLDDYEDQLKEAEKGIDPND
On to B1, for which the binding result in assay [1] is “binds”.

B2: TAF1 C-terminal region isolated in the yeast two-hybrid screen (domain or fragment, UniProt Q8LRK9 1278-1919)
chain: LCRLLMQDEDQKKKKKKMKGVGEGMGSYPPPRPNIALQSGEPVRKANAMDKKPIAIQPDASFLVNESTIKDNRNVDSIIKTPKGKQVKENSNSLGQLKKVKILNENLKVFKEKKSARENFVCGACGQHGHMRTNKHCPRYRENTESQPEGIDMDKSAGKPSSSEPSGLPKLKPIKNSKAAPKSAMKTSVDEALKGDKLSSKTGGLPLKFRYGIPAGDLSDKPVSEAPGSSEQAVVSDIDTGIKSTSKISKLKISSKAKPKESKGESERRSHSLMPTFSRERGESESHKPSVSGQPLSSTERNQAASSRHTISIPRPSLSMDTDQAESRRPHLVIRPPTEREQPQKKLVIKRSKEMNDHDMSSLEESPRFESRKTKRMAELAGFQRQQSFRLSENSLERRPKEDRVWWEEEEISTGRHREVRARRDYDDMSVSEEPNEIAEIRRYEEVIRSEREEEERQKAKKKKKKKKLQPEIVEGYLEDYPPRKNDRRLSERGRNVRSRYVSDFERDGAEYAPQPKRRKKGEVGLANILERIVDTLRLKEEVSRLFLKPVSKKEAPDYLDIVENPMDLSTIRDKVRKIEYRNREQFRHDVWQIKYNAHLYNDGRNPGIPPLADQLLEICDYLLDDYEDQLKEAEKGIDPND
B2: the binding entry in assay [2], in assay [3] and in assay [4] was “binds” throughout.

B3: TAF1(1278–1919)-cYFP (domain or fragment, UniProt Q8LRK9 1278-1919)
chain: LCRLLMQDEDQKKKKKKMKGVGEGMGSYPPPRPNIALQSGEPVRKANAMDKKPIAIQPDASFLVNESTIKDNRNVDSIIKTPKGKQVKENSNSLGQLKKVKILNENLKVFKEKKSARENFVCGACGQHGHMRTNKHCPRYRENTESQPEGIDMDKSAGKPSSSEPSGLPKLKPIKNSKAAPKSAMKTSVDEALKGDKLSSKTGGLPLKFRYGIPAGDLSDKPVSEAPGSSEQAVVSDIDTGIKSTSKISKLKISSKAKPKESKGESERRSHSLMPTFSRERGESESHKPSVSGQPLSSTERNQAASSRHTISIPRPSLSMDTDQAESRRPHLVIRPPTEREQPQKKLVIKRSKEMNDHDMSSLEESPRFESRKTKRMAELAGFQRQQSFRLSENSLERRPKEDRVWWEEEEISTGRHREVRARRDYDDMSVSEEPNEIAEIRRYEEVIRSEREEEERQKAKKKKKKKKLQPEIVEGYLEDYPPRKNDRRLSERGRNVRSRYVSDFERDGAEYAPQPKRRKKGEVGLANILERIVDTLRLKEEVSRLFLKPVSKKEAPDYLDIVENPMDLSTIRDKVRKIEYRNREQFRHDVWQIKYNAHLYNDGRNPGIPPLADQLLEICDYLLDDYEDQLKEAEKGIDPND
In the case of B3, the binding entry in assay [1] is “binds”.

B4: TAF1(1246–1606)-cYFP (domain or fragment, UniProt Q8LRK9 1246-1606)
chain: KLDGVKGLKMRRRPSQVETDEEIEDEATEYAELCRLLMQDEDQKKKKKKMKGVGEGMGSYPPPRPNIALQSGEPVRKANAMDKKPIAIQPDASFLVNESTIKDNRNVDSIIKTPKGKQVKENSNSLGQLKKVKILNENLKVFKEKKSARENFVCGACGQHGHMRTNKHCPRYRENTESQPEGIDMDKSAGKPSSSEPSGLPKLKPIKNSKAAPKSAMKTSVDEALKGDKLSSKTGGLPLKFRYGIPAGDLSDKPVSEAPGSSEQAVVSDIDTGIKSTSKISKLKISSKAKPKESKGESERRSHSLMPTFSRERGESESHKPSVSGQPLSSTERNQAASSRHTISIPRPSLSMDTDQAESRR
With B4, the binding result in assay [1] is recorded as “no binding”.

B5: NBS1-cYFP (protein, UniProt Q0H8D7 1-542)
chain: MVWGLFPVDPLSGEDKYYIFSKGIYKVGRKGCDIIINKDKGVSRIHAELTFDATTVSTSRRNKSSSDTSSFVIRVKDCSKYGTFVKTDLGTKDKVHELSNKEKILQDGDVIAFGTGSAIYRLSLIPLVFYLCPSSETFKVDQPVQDAVSSIGARISPTLSEECTHVLLEPRMQVNEALINAILAKKTIILTNWVMLLAEKSICSEIPGYSQYRPSVMVEEALVDVLELNVREKCLEGFTFVLEPTDTYRFGCSFPSLLEVCGAETVTIEDISSMSQDSQFGEINRMICVIPKSAGDKFGRFKHLSLLSRVNEMDLVCAVFSGNLPSTSLIPPSVVISSSCSTDETVVADSEAEEEETTSSVHMIDATEKAETPEKPAAIVIEDSPVTILEETSNLNEFKSVNLLADTESRGHMDEKNSSDSVTIRRDRNDEAETGKSEIIYTQDLIVRDLRSTRKVQSTGGEGVVDFKRFRKGNVTCGNSFSSLIPFAKDPYKEYDSWDVTDFMKEEKKRKQMEAIAEDLFKTEKARKRGTAGSIRGFLSGS
B5: the binding entry in assay [1] is listed as “binds”.
